Test results taken from the supplement of paper PMC11417369.
± gives the standard deviation of the averaged measurements. The list shows a part of the results.

What follows are sequences tested on PfAP2-G AP2 domain (GST-tagged) (assay: gcPBM binding intensity (ln(normalized median fluorescence intensity)); higher = stronger DNA binding).
Summary of the method: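 Probes on an Agilent 4 × 180k array were primer-extended, double-stranded and 36 bp long, taken from intergenic genomic regions, with negative controls added. GST-tagged P. falciparum DNA-binding domains from E. coli, about 25 μg on average, were applied to the array for 1 h in 1× PBS containing 1% milk, 0.2 mg/ml BSA, 0.5% salmon testes DNA and 0.03% Triton X-100. Binding intensity, obtained after Alexa488 anti-GST antibody detection and a 488 nm scan, is the highest Masliner-normalised natural-log median intensity across replicate spots of either probe orientation.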

Sequence	gcPBM binding intensity (ln)
CTAAGCTAAGTAAGCTGTACTTCACCTTTATACAGT [XGTACX_site3087]	11.5 ± 0.92
CTATTTTTATATTATTGTACGTTGTTATTATATATA [XGTACX_site1469]	11.2 ± 0.61
ATTAAGTTAAACATTACACACTATGTATTATTTATG [CACACA_site973]	10.025 ± 0.007
TTTTTCTTAAAAAATTGTACACATATATATATATAT [XGTACX_site542]	11.5 ± 0.75
TTTTTTTTTTTTAATACACACATATTTATATTTATT [CACACA_site7802]	9.9 ± 0.27
AATTAAAATAATAATACACACATCATAGAAAAAGAC [CACACA_site292]	10.5 ± 0.33
AAATTAGACTATAATACACACATAAAAAAAAAATCA [CACACA_site7672]	10.1 ± 0.21
TTATACTAAATGAACACACACACATCTATATTTATA [CACACA_site6199]	9.995 ± 0.021
TATTACATTGTTGAATGTACTCATTTAAAATTTATA [XGTACX_site7987]	11.3 ± 0.88
AATCAAAGCCCACATACACACACATATATATATATA [CACACA_site7987]	10.3 ± 0.15
ATGTCAAACATTTGCACACAAAAAAATAAAAATTAA [CACACA_site692]	10.1 ± 0.35
AATTGGGTAGGACATGCATGAGAAATTAATATTGCA [TGCATGCA_site356]	10.7 ± 0.58
ATATATATATATATATGTACTAACCTTTTAAAATAT [XGTACX_site6488]	11 ± 0.69
TTTTTTTTTTTTTGCACACACATAATAGGTACAAAT [CACACA_site3577]	11.3 ± 1.1
TTTTTTTTTTTTTTCTCACACATTTAATGATAATAT [CACACA_site5513]	9.78 ± 0.34
CATATTTACTATCACACACACGATATATATAAATAT [CACACA_site1241]	10.13 ± 0.085
TCATATTTCCATAGGAGTACATAAAAAAAATAATAT [XGTACX_site7601]	11.7 ± 1.2
TATGATATGTTATACACACACGTATTTATGAATTGA [CACACA_site7591]	10.2 ± 0.15
TTATGTAAAATCGATACATGCATTAATCATTTTATA [TGCATGCA_site493]	9.86 ± 0.16
ATCAACAAAACATACACACACATATAGATTTATATA [CACACA_site7415]	9.915 ± 0.092
AAAAAAAAAAAACACACACACATATATATATATATA [CACACA_site732]	9.8 ± 0.23
ATTTATATTAATGGATAAATAAATGTGTACTTGATA [CACACA_negctrl_site24]	11.5 ± 1.4
TTCTTTATTATATGCACACGTACATATAATATATAT [CACACA_site2018]	11.4 ± 0.87

Sequence	gcPBM binding intensity (ln)
GAAATAGAGAGACACACACACATATATTTATGTATT [CACACA_site7794]	9.93 ± 0.028
ATCATATTGAATATTTAACACACATTTCGCTTAATT [CACACA_site8652]	9.935 ± 0.007
AATTAGCTATTTAAAAATATATAAAATTTATATATA [CACACA_negctrl_site390]	9.64 ± 0.25
TATATATATAAAAGTTGTACAGTGTTTTATATAGTT [XGTACX_site7085]	11.5 ± 1
AAAATGTAGAAATGGGTGCACACACATATATAATAT	10.6 ± 0.39
AACTGTACAATTTTTGTGCACAATAATTATTAATAT [GTGCAC_site9462]	11.5 ± 0.81
TGCTATATAATATGAGCACACATAAGATTTGGTGTT [CACACA_site8148]	9.985 ± 0.007
ATATTTTTATTTAAACGTACATACACGTTGAAAAGA [XGTACX_site4567]	11.3 ± 0.95
TTTTCAATTAATAATACACACATGTATATATCATTA [CACACA_site7539]	9.77 ± 0.15
TAATGCATTATTAGAATACACACCATACGCATATTT [CACACA_site289]	10.07 ± 0.035
TGATGTTGTAACAAAAGTACACACACATTTCTATAA [XGTACX_site5837]	11.3 ± 0.98
TTTTTCTTTTGATGTTGTACATATATATTATATATA [XGTACX_site2754]	11.3 ± 0.84
AAGAAAAAAAAAAAAAATATATATATAAGAACATAT [TGCATGCA_negctrl_site131]	9.53 ± 0.2
GATAAAACGTTATGCACACGTACGTGGGTATTTATA [CACACA_site4954]	11.1 ± 0.43
TTTAATAATTATTAAAGTACAAAATAAATATTGAAT [XGTACX_site7538]	11 ± 0.62
TATAAAAAAATATATATATATATATATATATAAATA [TGCATGCA_negctrl_site22]	9.6 ± 0.36
AACTATAAAAAAAATACACACATTACCAAAAATATA [CACACA_site1529]	9.96 ± 0.014
AATCTGATTTGTATATGTACACAAATATTTTTATTT [XGTACX_site5295]	11.5 ± 0.91
GTGAATGATTTAAGTACACACCGGTATTTATTCAAA [CACACA_site4950]	11.4 ± 0.98
AAAAAAAAAAATAAATGTACAAAATAATGGGGAACA [XGTACX_site8723]	10.7 ± 0.28
AAAAAAAAAAAATACACACACACATATTTATTTATA [CACACA_site6483]	9.94 ± 0.16
TGTATTAAAAATTTGGTGCAACTTTTACATAATAAT	10 ± 0.16
TTTTTTTTTTTTTTTTGTACGAATAAACAAGTTATT [XGTACX_site5473]	10.8 ± 1.2

Sequence	gcPBM binding intensity (ln)
ATATATATATATATATGTACATATTTTATTTAATTT [XGTACX_site1807]	11.2 ± 0.69
ATACACAAGAATATGTTGCACTTTTATATTCGTATG	10.06 ± 0.028
AATAAAATTGACCATTCACACAAGAAAAATTAATCA [CACACA_site5636]	10.5 ± 0.47
GATTCGATCTATATATGTACACATAAATATTTTTTG [XGTACX_site7015]	11.5 ± 1
TATATATTTATTTATTGTACACTCTTTAAGAATACA [XGTACX_site2569]	11.2 ± 0.72
TATATATATATATATATATATATATATGTGTATGTA [TGCATGCA_negctrl_site255]	10.1 ± 0.61
AATATAAAAATGTTTACACACACACCGAAATATATT [CACACA_site8800]	10.2 ± 0.14
TATGCCATGGCATAATGTACATAAGTGACCTCATAA [XGTACX_site1294]	11.1 ± 0.7
AATATTTATATTAACTGTACAGAAAATATCTTTGCT [XGTACX_site8130]	11.1 ± 0.71
CATAAGATTTTTACATGTACATATTTATAATATATT [XGTACX_site6578]	11.3 ± 0.88
GATATATAAATTGACACACACATATATACCTATATA [CACACA_site6689]	10.1 ± 0.2
TTCTTTTTTTTTTTTTCATGTATATTAAACTTTTCA [TGCATGCA_negctrl_site592]	9.74 ± 0.22
TATAATGTTGATGATAGTACGTATGAGTTCAAAAAA [XGTACX_site3651]	11.2 ± 0.65
AGAAATTAAATGTAAGCACACATAAATTATACACAT [CACACA_site9098]	10.1 ± 0.12
AAAAAATTATACCAGTGTACTTTTTTGGTTTTTCTT [XGTACX_site2601]	11.5 ± 0.99
ATATATTTAAAAAAATGTACAAATCATAAATGCAAG [XGTACX_site4230]	10.8 ± 0.42
TCCTTACACACACTTTTTTTTTTTTTTTTTTCTACA [GTGCAC_negctrl_site263]	10 ± 0.12
ATATATTATCAACTTACACACAGAAAACTATAATAA [CACACA_site6275]	10.07 ± 0.014
CTTTTTCCTTTATAAAGTACTTAAAATATTTAGATA [XGTACX_site4259]	11.1 ± 0.59
CTCGATCAAGTGTATGCATGTACCAGTGAACAAAAA [TGCATGCA_site635]	10.9 ± 0.34
AAAAGAATTAATTTATGTACTAATTTCAAGAAATAA [XGTACX_site3241]	11.1 ± 0.69
TTTATAAAAATATACACACATACAAATATGCATATA [CACACA_site712]	9.91 ± 0.057
AAAATACACGCATACACACACACACCCACCCATATA [CACACA_site639]	10.4 ± 0.13

Sequence	gcPBM binding intensity (ln)
AAAAAAAAAAAAAAAACACACACATACACCCAAAAA [CACACA_site7910]	10.6 ± 0.28
TTACATATGGTTAGTAGTACATATATAAATGTAAAT [XGTACX_site7206]	11.4 ± 0.87
TTTATATGTATTAAGTGTACACATATAATCTATCTT [XGTACX_site4922]	11.6 ± 0.98
TAATAATATATATGAAGTACAATAACTTTTTGTTTT [XGTACX_site292]	11.3 ± 0.82
GTCAAATTTTTGTGCACACATATATAGTTATTATTA [CACACA_site2241]	10.6 ± 0.34
TTTCTTTTCTCAGAAATTATTCAAATGAAAAAAAAT [TGCATGCA_negctrl_site44]	9.81 ± 0.16
GTATACACATATATATGTACTTAATTATTTTATGTC [XGTACX_site6707]	11.2 ± 0.7
CAAAGGGAAATTAACACACACATATATATATATATA [CACACA_site2453]	9.98 ± 0.43
AAACATGATTATTATAGTACAATTATAATTATTATA [XGTACX_site2590]	10.8 ± 0.59
GTCATAAAAACATATACACACTTGAAATATAAAAAT [CACACA_site5315]	10 ± 0.16
TGTATATATATATAAAGTACATATAATATATATTTG [XGTACX_site5411]	11.1 ± 0.61
AAATAAAATTATAACTGTACGTTGTATGAAATAATG [XGTACX_site5462]	11.3 ± 0.8
ATTTTTTTACTGCAACCATATTTTTCCCTTTTATTC [CACACA_negctrl_site1282]	10.12 ± 0.085
CTGTTTAAAATATAAACACACATTGTTTGCTTTAGA [CACACA_site1301]	9.78 ± 0.042
TCTATAAAGTTCCATACATGCGCCATCATTTATATT [TGCATGCA_site195]	10.21 ± 0.021
ATTATAATTATTTTGTTGCACTATTTTTGTAGGCCA [GTGCAC_site9734]	10.3 ± 0.16
GAATACACCACGCACACACACTTGAGAAAAAATAAA [CACACA_site7747]	10.6 ± 0.56
GTGTACATAGGTATAGCACACACAAATGTAGGTATT [CACACA_site9339]	11 ± 0.59
CATGTAATATTAAACACACACTCATATAACACAATA [CACACA_site65]	10.09 ± 0.057
AAAGAAAAAAAAAACACACACACACGCATTCAATAT [CACACA_site6169]	10.04 ± 0.042
